Binding data for 6 molecules are collected here from article PMC9430164.

Experiment [1] deals with His-tagged DacA(ΔC) (DacA without the C-terminal membrane-anchoring domain) (E. coli) (UniProt P0AEB2). The experiment can be described thus: pull-down; supernatant of MG1655 chromosomal PBP-3×Flag cells mixed with supernatant of ER2566 cells expressing His-tagged DacA or DacA(ΔC) (nontagged as control); Talon metal affinity resin; buffer A (50 mM Tris-HCl pH 8.0, 150 mM NaCl) with 1% n-dodecyl-β-D-maltoside; elution with 200 mM …; Western blot with anti-Flag antibody. Background: A western blot detects proteins with antibodies after separation by electrophoresis.

Experiment [2] has as its target T1, His-tagged DacA (PG carboxypeptidase DacA, without its signal sequence) (E. coli) (UniProt P0AEB2).
T1 sequence: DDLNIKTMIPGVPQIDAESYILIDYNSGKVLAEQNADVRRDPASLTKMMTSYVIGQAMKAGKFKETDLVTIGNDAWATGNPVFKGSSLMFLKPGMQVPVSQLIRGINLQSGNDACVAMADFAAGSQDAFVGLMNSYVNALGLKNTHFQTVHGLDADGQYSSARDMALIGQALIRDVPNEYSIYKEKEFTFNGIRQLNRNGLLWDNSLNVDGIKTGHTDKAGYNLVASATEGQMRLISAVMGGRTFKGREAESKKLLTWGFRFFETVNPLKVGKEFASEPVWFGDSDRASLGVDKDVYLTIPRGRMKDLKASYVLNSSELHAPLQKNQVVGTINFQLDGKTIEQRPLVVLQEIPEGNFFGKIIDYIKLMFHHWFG
The description is as above.

Experiment [3] concerns the target His-tagged DacA(ΔC) (DacA without the C-terminal membrane-anchoring domain) (E. coli) (UniProt P0AEB2). The experiment can be described thus: pull-down; supernatant of ER2566 cells overexpressing full-length PBP1a or PBP1b mixed with supernatant of ER2566 cells expressing His-tagged DacA or DacA(ΔC); Talon resin; eluted proteins separated on 4 to 20% gradient Tris-glycine polyacrylamide gels.

The target in experiment [4] is T1, His-tagged DacA (PG carboxypeptidase DacA, without its signal sequence) (E. coli). The description is as above.

These are yes or no findings as the source states them, for the method shown. Binding seen in cells or lysates may run through a third protein. Some binding calls cover weakened binding; strength is not graded here. For part of these data: Tags and fused reporters may be left off the sequences shown.

B1: PBP3 with three Flag tags at the C terminus (chromosomal) (enzyme, UniProt P0AD68 1-577)
chain: MKAAAKTQKPKRQEEHANFISWRFALLCGCILLALAFLLGRVAWLQVISPDMLVKEGDMRSLRVQQVSTSRGMITDRSGRPLAVSVPVKAIWADPKEVHDAGGISVGDRWKALANALNIPLDQLSARINANPKGRFIYLARQVNPDMADYIKKLKLPGIHLREESRRYYPSGEVTAHLIGFTNVDSQGIEGVEKSFDKWLTGQPGERIVRKDRYGRVIEDISSTDSQAAHNLALSIDERLQALVYRELNNAVAFNKAESGSAVLVDVNTGEVLAMANSPSYNPNNLSGTPKEAMRNRTITDVFEPGSTVKPMVVMTALQRGVVRENSVLNTIPYRINGHEIKDVARYSELTLTGVLQKSSNVGVSKLALAMPSSALVDTYSRFGLGKATNLGLVGERSGLYPQKQRWSDIERATFSFGYGLMVTPLQLARVYATIGSYGIYRPLSITKVDPPVPGERVFPESIVRTVVHMMESVALPGGGGVKAAIKGYRIAIKTGTAKKVGPDGRYINKYIAYTAGVAPASQPRFALVVVINDPQAGKYYGGAVSAPVFGAIMGGVLRTMNIEPDALTTGDKNEFV
Consider B1, for which the binding result in experiment [1] was “no binding”; in experiment [2] it was “binds”.

B2: PBP1a with three Flag tags at the C terminus (chromosomal) (enzyme, UniProt P02918 1-850)
chain: MKFVKYFLILAVCCILLGAGSIYGLYRYIEPQLPDVATLKDVRLQIPMQIYSADGELIAQYGEKRRIPVTLDQIPPEMVKAFIATEDSRFYEHHGVDPVGIFRAASVALFSGHASQGASTITQQLARNFFLSPERTLMRKIKEVFLAIRIEQLLTKDEILELYLNKIYLGYRAYGVGAAAQVYFGKTVDQLTLNEMAVIAGLPKAPSTFNPLYSMDRAVARRNVVLSRMLDEGYITQQQFDQTRTEAINANYHAPEIAFSAPYLSEMVRQEMYNRYGESAYEDGYRIYTTITRKVQQAAQQAVRNNVLDYDMRHGYRGPANVLWKVGESAWDNNKITDTLKALPTYGPLLPAAVTSANPQQATAMLADGSTVALSMEGVRWARPYRSDTQQGPTPRKVTDVLQTGQQIWVRQVGDAWWLAQVPEVNSALVSINPQNGAVMALVGGFDFNQSKFNRATQALRQVGSNIKPFLYTAAMDKGLTLASMLNDVPISRWDASAGSDWQPKNSPPQYAGPIRLRQGLGQSKNVVMVRAMRAMGVDYAAEYLQRFGFPAQNIVHTESLALGSASFTPMQVARGYAVMANGGFLVDPWFISKIENDQGGVIFEAKPKVACPECDIPVIYGDTQKSNVLENNDVEDVAISREQQNVSVPMPQLEQANQALVAKTGAQEYAPHVINTPLAFLIKSALNTNIFGEPGWQGTGWRAGRDLQRRDIGGKTGTTNSSKDAWFSGYGPGVVTSVWIGFDDHRRNLGHTTASGAIKDQISGYEGGAKSAQPAWDAYMKAVLEGVPEQPLTPPPGIVTVNIDRSTGQLANGGNSREEYFIEGTQPTQQAVHEVGTTIIDNGEAQELF
B2: the binding entry in experiment [1] is “no binding”; in experiment [2], “binds”.

B3: overexpressed full-length PBP1a (enzyme, UniProt P02918 1-850)
chain: MKFVKYFLILAVCCILLGAGSIYGLYRYIEPQLPDVATLKDVRLQIPMQIYSADGELIAQYGEKRRIPVTLDQIPPEMVKAFIATEDSRFYEHHGVDPVGIFRAASVALFSGHASQGASTITQQLARNFFLSPERTLMRKIKEVFLAIRIEQLLTKDEILELYLNKIYLGYRAYGVGAAAQVYFGKTVDQLTLNEMAVIAGLPKAPSTFNPLYSMDRAVARRNVVLSRMLDEGYITQQQFDQTRTEAINANYHAPEIAFSAPYLSEMVRQEMYNRYGESAYEDGYRIYTTITRKVQQAAQQAVRNNVLDYDMRHGYRGPANVLWKVGESAWDNNKITDTLKALPTYGPLLPAAVTSANPQQATAMLADGSTVALSMEGVRWARPYRSDTQQGPTPRKVTDVLQTGQQIWVRQVGDAWWLAQVPEVNSALVSINPQNGAVMALVGGFDFNQSKFNRATQALRQVGSNIKPFLYTAAMDKGLTLASMLNDVPISRWDASAGSDWQPKNSPPQYAGPIRLRQGLGQSKNVVMVRAMRAMGVDYAAEYLQRFGFPAQNIVHTESLALGSASFTPMQVARGYAVMANGGFLVDPWFISKIENDQGGVIFEAKPKVACPECDIPVIYGDTQKSNVLENNDVEDVAISREQQNVSVPMPQLEQANQALVAKTGAQEYAPHVINTPLAFLIKSALNTNIFGEPGWQGTGWRAGRDLQRRDIGGKTGTTNSSKDAWFSGYGPGVVTSVWIGFDDHRRNLGHTTASGAIKDQISGYEGGAKSAQPAWDAYMKAVLEGVPEQPLTPPPGIVTVNIDRSTGQLANGGNSREEYFIEGTQPTQQAVHEVGTTIIDNGEAQELF
B3: the binding entry in experiment [3] is “no binding”; in experiment [4] it was “binds”.

B4: PBP1b with three Flag tags at the C terminus (chromosomal) (enzyme, UniProt P02919 1-844)
chain: MAGNDREPIGRKGKPTRPVKQKVSRRRYEDDDDYDDYDDYEDEEPMPRKGKGKGKGRKPRGKRGWLWLLLKLAIVFAVLIAIYGVYLDQKIRSRIDGKVWQLPAAVYGRMVNLEPDMTISKNEMVKLLEATQYRQVSKMTRPGEFTVQANSIEMIRRPFDFPDSKEGQVRARLTFDGDHLATIVNMENNRQFGFFRLDPRLITMISSPNGEQRLFVPRSGFPDLLVDTLLATEDRHFYEHDGISLYSIGRAVLANLTAGRTVQGASTLTQQLVKNLFLSSERSYWRKANEAYMALIMDARYSKDRILELYMNEVYLGQSGDNEIRGFPLASLYYFGRPVEELSLDQQALLVGMVKGASIYNPWRNPKLALERRNLVLRLLQQQQIIDQELYDMLSARPLGVQPRGGVISPQPAFMQLVRQELQAKLGDKVKDLSGVKIFTTFDSVAQDAAEKAAVEGIPALKKQRKLSDLETAIVVVDRFSGEVRAMVGGSEPQFAGYNRAMQARRSIGSLAKPATYLTALSQPKIYRLNTWIADAPIALRQPNGQVWSPQNDDRRYSESGRVMLVDALTRSMNVPTVNLGMALGLPAVTETWIKLGVPKDQLHPVPAMLLGALNLTPIEVAQAFQTIASGGNRAPLSALRSVIAEDGKVLYQSFPQAERAVPAQAAYLTLWTMQQVVQRGTGRQLGAKYPNLHLAGKTGTTNNNVDTWFAGIDGSTVTITWVGRDNNQPTKLYGASGAMSIYQRYLANQTPTPLNLVPPEDIADMGVDYDGNFVCSGGMRILPVWTSDPQSLCQQSEMQQQPSGNPFDQSSQPQQQPQQQPAQQEQKDSDGVAGWIKDMFGSN
B4: the binding result in experiment [1] is given as “no binding”; in experiment [2], “binds”.

B5: overexpressed full-length PBP1b (enzyme, UniProt P02919 1-844)
chain: MAGNDREPIGRKGKPTRPVKQKVSRRRYEDDDDYDDYDDYEDEEPMPRKGKGKGKGRKPRGKRGWLWLLLKLAIVFAVLIAIYGVYLDQKIRSRIDGKVWQLPAAVYGRMVNLEPDMTISKNEMVKLLEATQYRQVSKMTRPGEFTVQANSIEMIRRPFDFPDSKEGQVRARLTFDGDHLATIVNMENNRQFGFFRLDPRLITMISSPNGEQRLFVPRSGFPDLLVDTLLATEDRHFYEHDGISLYSIGRAVLANLTAGRTVQGASTLTQQLVKNLFLSSERSYWRKANEAYMALIMDARYSKDRILELYMNEVYLGQSGDNEIRGFPLASLYYFGRPVEELSLDQQALLVGMVKGASIYNPWRNPKLALERRNLVLRLLQQQQIIDQELYDMLSARPLGVQPRGGVISPQPAFMQLVRQELQAKLGDKVKDLSGVKIFTTFDSVAQDAAEKAAVEGIPALKKQRKLSDLETAIVVVDRFSGEVRAMVGGSEPQFAGYNRAMQARRSIGSLAKPATYLTALSQPKIYRLNTWIADAPIALRQPNGQVWSPQNDDRRYSESGRVMLVDALTRSMNVPTVNLGMALGLPAVTETWIKLGVPKDQLHPVPAMLLGALNLTPIEVAQAFQTIASGGNRAPLSALRSVIAEDGKVLYQSFPQAERAVPAQAAYLTLWTMQQVVQRGTGRQLGAKYPNLHLAGKTGTTNNNVDTWFAGIDGSTVTITWVGRDNNQPTKLYGASGAMSIYQRYLANQTPTPLNLVPPEDIADMGVDYDGNFVCSGGMRILPVWTSDPQSLCQQSEMQQQPSGNPFDQSSQPQQQPQQQPAQQEQKDSDGVAGWIKDMFGSN
B5: the binding result in experiment [3] is “no binding”; in experiment [4] it was “binds”.

B6: PBP2 with three Flag tags at the C terminus (chromosomal) (enzyme, UniProt P0AD65 1-633)
chain: MKLQNSFRDYTAESALFVRRALVAFLGILLLTGVLIANLYNLQIVRFTDYQTRSNENRIKLVPIAPSRGIIYDRNGIPLALNRTIYQIEMMPEKVDNVQQTLDALRSVVDLTDDDIAAFRKERARSHRFTSIPVKTNLTEVQVARFAVNQYRFPGVEVKGYKRRYYPYGSALTHVIGYVSKINDKDVERLNNDGKLANYAATHDIGKLGIERYYEDVLHGQTGYEEVEVNNRGRVIRQLKEVPPQAGHDIYLTLDLKLQQYIETLLAGSRAAVVVTDPRTGGVLALVSTPSYDPNLFVDGISSKDYSALLNDPNTPLVNRATQGVYPPASTVKPYVAVSALSAGVITRNTTLFDPGWWQLPGSEKRYRDWKKWGHGRLNVTRSLEESADTFFYQVAYDMGIDRLSEWMGKFGYGHYTGIDLAEERSGNMPTREWKQKRFKKPWYQGDTIPVGIGQGYWTATPIQMSKALMILINDGIVKVPHLLMSTAEDGKQVPWVQPHEPPVGDIHSGYWELAKDGMYGVANRPNGTAHKYFASAPYKIAAKSGTAQVFGLKANETYNAHKIAERLRDHKLMTAFAPYNNPQVAVAMILENGGAGPAVGTLMRQILDHIMLGDNNTDLPAENPAVAAAEDH
Take B6: the values for the binding entry in experiment [1] and in experiment [2] were “no binding” and “binds”, respectively.
